{"source": "the supplement of paper PMC3334620", "note": "In all, about 33,000 sequences were measured (“E-score (-0.5 to 0.5)”: median about -0.036, highest 2% from about 0.37 on). The list shows a part of the results.", "data": [{"target": "T1, Yer064c (UniProt P40041)", "T1 sequence": "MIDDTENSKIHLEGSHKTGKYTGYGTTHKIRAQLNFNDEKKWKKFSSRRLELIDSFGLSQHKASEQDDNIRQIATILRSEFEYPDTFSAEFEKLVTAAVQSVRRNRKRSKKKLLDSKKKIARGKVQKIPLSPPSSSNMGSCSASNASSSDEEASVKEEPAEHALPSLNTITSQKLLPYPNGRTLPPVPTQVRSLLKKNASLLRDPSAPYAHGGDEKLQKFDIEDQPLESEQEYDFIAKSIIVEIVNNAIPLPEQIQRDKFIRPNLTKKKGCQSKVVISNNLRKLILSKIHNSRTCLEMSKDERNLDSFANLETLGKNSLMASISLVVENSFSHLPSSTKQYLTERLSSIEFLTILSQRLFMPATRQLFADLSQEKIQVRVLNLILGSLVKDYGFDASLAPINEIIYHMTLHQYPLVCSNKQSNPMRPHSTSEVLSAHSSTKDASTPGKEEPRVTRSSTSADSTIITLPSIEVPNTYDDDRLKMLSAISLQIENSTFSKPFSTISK", "assay": "PBM E-score (8-mer binding enrichment) (E-score (-0.5 to 0.5)); higher = stronger / more preferred TF binding; most listed sequences are background and not binding sites", "details": "protein concentration: 200 nM; construct: GST-full length", "outline": "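Bound GST-tagged yeast transcription factors, applied at about 100-200 nM to double-stranded universal all-10-mer Agilent arrays, were detected with fluorescent anti-GST. Scans were normalised with masliner. A modified Wilcoxon-Mann-Whitney statistic, the E-score, was assigned to each ungapped eight-base word pooled with its reverse complement by the Universal PBM Analysis Suite.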", "values": [{"sequence": "CCTTCTAG", "PBM E-score": -0.244}, {"sequence": "CTGTCTGC", "PBM E-score": -0.125}, {"sequence": "ACTCTCGA", "PBM E-score": 0.189}, {"sequence": "AGCTAGGG", "PBM E-score": -0.186}, {"sequence": "CAGCCCAC", "PBM E-score": -0.0415}, {"sequence": "GCGGGGCC", "PBM E-score": -0.172}, {"sequence": "CGTATTAA", "PBM E-score": 0.00537}, {"sequence": "ACCCTATG", "PBM E-score": 0.155}, {"sequence": "ACAGTCCG", "PBM E-score": 0.128}, {"sequence": "ACTATCGC", "PBM E-score": 0.257}, {"sequence": "ACTAAGTC", "PBM E-score": 0.376}, {"sequence": "CCCGGCCC", "PBM E-score": -0.131}, {"sequence": "TATAAAGA", "PBM E-score": 0.0948}, {"sequence": "GCCAATAA", "PBM E-score": 0.136}, {"sequence": "AAAGCTGT", "PBM E-score": -0.129}, {"sequence": "CTTCTTAC", "PBM E-score": -0.0554}, {"sequence": "AATGAACG", "PBM E-score": -0.112}, {"sequence": "AATACGAG", "PBM E-score": 0.122}, {"sequence": "AACCATCC", "PBM E-score": 0.268}, {"sequence": "AACCTACC", "PBM E-score": -0.192}, {"sequence": "AACAAAAT", "PBM E-score": -0.079}, {"sequence": "CAGGCTCC", "PBM E-score": -0.087}, {"sequence": "AGGAGGAC", "PBM E-score": -0.111}, {"sequence": "CCGCTCTA", "PBM E-score": -0.151}, {"sequence": "CTGGGGGA", "PBM E-score": -0.129}, {"sequence": "CAATGGGG", "PBM E-score": -0.14}, {"sequence": "CGAACACC", "PBM E-score": -0.0246}, {"sequence": "CATAGTTC", "PBM E-score": -0.0534}, {"sequence": "GCCTTCCC", "PBM E-score": -0.305}, {"sequence": "TCGTACGA", "PBM E-score": 0.0763}, {"sequence": "GCATGGCC", "PBM E-score": -0.271}, {"sequence": "AACCACGG", "PBM E-score": 0.179}, {"sequence": "ATATAATC", "PBM E-score": 0.179}, {"sequence": "ATTGGGCC", "PBM E-score": -0.2}, {"sequence": "CCCAGCGG", "PBM E-score": -0.163}, {"sequence": "CGGCATTA", "PBM E-score": -0.0404}, {"sequence": "CGCATTAA", "PBM E-score": 0.0209}, {"sequence": "AACCTTGG", "PBM E-score": -0.177}, {"sequence": "CCTCCTGC", "PBM E-score": -0.138}, {"sequence": "CAACCCAG", "PBM E-score": -0.181}, {"sequence": "CTGGACAA", "PBM E-score": 0.0732}, {"sequence": "CGACAAAA", "PBM E-score": 0.0755}, {"sequence": "ACCACCGA", "PBM E-score": -0.158}, {"sequence": "GGTTCAGA", "PBM E-score": 0.0025}, {"sequence": "GGTTTTGA", "PBM E-score": -0.011}, {"sequence": "TCTGCCCA", "PBM E-score": -0.146}, {"sequence": "AGTGCGAT", "PBM E-score": -0.0764}, {"sequence": "TCAATAAA", "PBM E-score": 0.171}, {"sequence": "CCGATACC", "PBM E-score": -0.285}, {"sequence": "TCCAGAGA", "PBM E-score": -0.0134}, {"sequence": "AGAGGACC", "PBM E-score": -0.235}, {"sequence": "CTTTTGGA", "PBM E-score": -0.0676}, {"sequence": "CCCTCACA", "PBM E-score": -0.248}, {"sequence": "ACCATCTC", "PBM E-score": -0.0631}, {"sequence": "ATTCAGGA", "PBM E-score": 0.106}, {"sequence": "CCATATGA", "PBM E-score": 0.0961}, {"sequence": "ATAGAGGC", "PBM E-score": -0.188}, {"sequence": "AAAGAACT", "PBM E-score": -0.0554}, {"sequence": "GCATGGTA", "PBM E-score": -0.143}, {"sequence": "AGTATCGC", "PBM E-score": -0.159}, {"sequence": "CTTCACGA", "PBM E-score": -0.133}, {"sequence": "GTATCGAA", "PBM E-score": -0.00179}, {"sequence": "CTTTTCGA", "PBM E-score": -0.0304}, {"sequence": "CGAACAAA", "PBM E-score": 0.0495}, {"sequence": "TATTCGCA", "PBM E-score": -0.0943}, {"sequence": "CCCACCGC", "PBM E-score": -0.11}, {"sequence": "CAGCGAAG", "PBM E-score": 0.0763}, {"sequence": "GACCTCAA", "PBM E-score": 0.074}, {"sequence": "ATCTCCTG", "PBM E-score": -0.0068}, {"sequence": "GCGGCGCC", "PBM E-score": -0.318}, {"sequence": "GCTCGAAA", "PBM E-score": -0.134}, {"sequence": "ATTGTTCG", "PBM E-score": 0.164}, {"sequence": "GCACGCCA", "PBM E-score": -0.154}, {"sequence": "CAACCGAG", "PBM E-score": -0.193}, {"sequence": "TCTCTAAA", "PBM E-score": -0.0284}, {"sequence": "TGGACACA", "PBM E-score": -0.102}, {"sequence": "GCAGGGTA", "PBM E-score": -0.274}, {"sequence": "ATGAGGTG", "PBM E-score": -0.189}, {"sequence": "AATCCCTG", "PBM E-score": 0.0412}, {"sequence": "ATCGCTCG", "PBM E-score": -0.0343}, {"sequence": "ACGATAAC", "PBM E-score": -0.0162}, {"sequence": "ACTACACT", "PBM E-score": 0.157}, {"sequence": "TTTATAAA", "PBM E-score": 0.0537}, {"sequence": "ACTGGAAC", "PBM E-score": 0.0191}, {"sequence": "AAGCCAGT", "PBM E-score": 0.0361}, {"sequence": "AGTCGATG", "PBM E-score": 0.249}]}]}
